Test results taken from PubChem BioAssay AID463173 (ICCB-Longwood Screening Facility, Harvard Medical School, 2010).
Among all 52,000 compounds or so, about 1,700 (3.3%) were called active. Cut-off read from the data, not from the text of the source: active = survival mostly below about 52% (no sharp cut-off); inactive = mostly above about 56%. The list shows a part of the results.

System: Wild type
Assay: S. aureus survival, RN4220 and DeltatarO strains – OD600, teichoic acid synthesis inhibitors, primary screen (AID 463173)
Conditions: S. aureus RN4220 wild type/DeltatarO growth, OD600, 18 h, hits give low values, screened at 18.75 µg/mL (by protocol)

SMILES | survival
Cc1cccc(N2CCN(C(=O)c3cc4c(=O)oc5ccccc5c4s3)CC2)c1C | inactive: 78%
Cc1ccc(NC(=O)/C=C/c2ccc(C)o2)c(C)c1 | inactive: 62%
Cc1cc(C(F)F)n2nc(C(=O)Nc3c(C)cccc3C)nc2n1 | inactive: 70%
COc1ccc(-n2c(CC3C(=O)N(C)c4ccc(C)cc43)nc3ccccc3c2=O)cc1 (stereo not given) | inactive: 113%
CCc1ccc(NC(=O)CN(c2ccc(OC)cc2)S(=O)(=O)c2c(C)[nH]c(=O)[nH]c2=O)cc1 | inactive: 76%
COc1ccc(S(=O)(=O)N2CCC(Oc3ccc(-n4cnnn4)cc3)CC2)cc1OC | inactive: 83%
CCOc1ccc(C(=O)c2cn(Cc3ccccc3OC)c3ccc(F)cc3c2=O)cc1 | inactive: 84%
Oc1c(C(c2ccccc2Cl)N2CCCC2)sc2nc(-c3ccco3)nn12 (stereo not given) | inactive: 82%
CCOc1ccc(N(CC(=O)NCc2ccccc2Cl)S(=O)(=O)c2c(C)[nH]c(=O)[nH]c2=O)cc1 | inactive: 81%
CC(=O)Nc1ccc(NC(=O)CSc2nc3ccccc3nc2N2CCOCC2)cc1 | inactive: 84%
CN1C(=O)c2ccccc2Sc2ccc(NC(=O)COc3ccc(F)cc3)cc21 | inactive: 72%
Fc1ccc(CN2CCc3nc(Nc4ccccc4)ncc3C2)cc1F | inactive: 66%
COc1ccc(CCNc2ncnc3c2cnn3-c2ccc(C)cc2)cc1 | inactive: 71%
COc1ccc(-c2noc(CNC(=O)c3ccco3)n2)cc1 | inactive: 81%
O=C(NCc1ccco1)c1ccc2c(c1)N(Cc1cccc(Cl)c1)C(=O)c1ccccc1S2(=O)=O | inactive: 64%
Cc1ccc(CNC(=O)CSc2cc(C)[nH]c(=O)n2)cc1 | inactive: 73%
Cn1c(SCc2ccccc2)nnc1-c1ccccc1 | inactive: 101%
Cc1nn(-c2ccccc2)c2nc(C3CC3)cc(C(=O)Nc3ccccc3F)c12 | inactive: 75%
COc1ccc(C2C(=O)N(C3CCCCCC3)CC(=O)N2Cc2ccc(C)cc2)cc1OC (stereo not given) | inactive: 69%
Cc1ccccc1C(=O)Nc1nnc(S(=O)(=O)N2c3ccccc3CC2C)s1 (stereo not given) | inactive: 33%
Cc1c(NS(=O)(=O)c2ccccc2)cc(C(C)C)c(O)c1S(=O)(=O)c1ccc(Cl)cc1 | inactive: 115%
COc1cc(C(=O)N2CCC(c3nc4ccccc4o3)CC2)cc(OC)c1OC | inactive: 83%
Cc1ccc2[nH]cc(NC(=O)NCCN(C)C)c(=O)c2c1 | inactive: 117%
CC1CCN(C(=O)CSc2nc(-c3ccccc3)no2)CC1 | inactive: 115%
CC(C)(C)n1nnnc1C(c1ccccn1)N1CCC(Cc2ccccc2)CC1 (stereo not given) | inactive: 110%
